Measurements: the supplement of paper PMC4166925
± gives the standard deviation of the averaged measurements. The full ranking holds about 33,000 sequences; the median of “E-score (dimensionless, -0.5 to 0.5)” is about -0.046, and the highest 2% start at about 0.36. This is one part of the list.

Tested on: T1, SpTbr T-box DNA-binding domain (GST fusion)
T1 sequence: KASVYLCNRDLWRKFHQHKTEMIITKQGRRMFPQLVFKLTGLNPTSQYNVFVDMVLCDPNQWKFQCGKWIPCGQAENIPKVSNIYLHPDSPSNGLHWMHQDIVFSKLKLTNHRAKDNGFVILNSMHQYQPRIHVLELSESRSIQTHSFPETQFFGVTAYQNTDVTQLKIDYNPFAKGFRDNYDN
Assay: PBM E-score of 8-mer (E-score (dimensionless, -0.5 to 0.5)); Tbr is Tbrain of the sea star Patiria miniata (Pm) or the sea urchin Strongylocentrotus purpuratus (Sp); higher = stronger binding preference; most listed sequences are background and not binding sites
Conditions: the construct has about 5 more residues each side
Outline: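 GST-fused Tbr T-box DNA-binding domains (the whole T-box plus about five flanking residues) were expressed in BL21 E. coli at 20 °C and purified by glutathione affinity chromatography. Universal Agilent oligonucleotide arrays were made double-stranded by primer extension, incubated with 200 nM protein in PBS (pH 7.5), then scanned and quantified. Every ungapped 8-mer was scored from probe intensities. The Universal PBM Analysis Suite gave each word an enrichment E-score, averaged over duplicate arrays.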

Sequence	PBM E-score of 8-mer
AGATCTAG	0.00186 ± 0.0095
CCATACTA	-0.197 ± 0.077
CTCGTACC	-0.123 ± 0.022
GCCTCGAC	0.0257 ± 0.077
ACGTAAGG	0.0139 ± 0.056
ACAACCTG	0.193 ± 0.021
ATAGATAT	-0.135 ± 0.06
ATACACCA	0.0224 ± 0.046
AGTGGGAG	-0.0084 ± 0.023
AGTGTCGC	0.412 ± 0.016
CTACCGAC	-0.0475 ± 0.0037
GCCCAGCC	-0.0449 ± 0.038
AAAACGGT	-0.0952 ± 0.074
ATTTTGAC	0.183 ± 0.012
ACTGATCC	-0.204 ± 0.025
AACCACCC	-0.022 ± 0.044
GACTATAA	0.00588 ± 0.016
CTGAAACC	-0.0709 ± 0.00086
AAACAAAT	0.0768 ± 0.075
GCAAAACC	0.0522 ± 0.077
CAATTACG	-0.0652 ± 0.01
AATCACAG	0.06 ± 0.051
CCCTAGAA	-0.163 ± 0.011
CAGAACGG	-0.0617 ± 0.055
ACACGTAT	0.298 ± 0.015

Sequence	PBM E-score of 8-mer
CGTCCCGA	-0.121 ± 0.015
CGAAATTC	-0.00067 ± 0.073
AAGTACCT	-0.306 ± 0.038
ACGATCAC	0.119 ± 0.031
ATGCTGGC	-0.026 ± 0.013
AATAGCCC	-0.194 ± 0.016
ATTGGTTA	-0.129 ± 0.053
CGGAAATA	-0.121 ± 0.017
AACTGCTT	0.0483 ± 0.064
ACGCCGCG	0.124 ± 0.0048
TACGCGGA	-0.17 ± 0.059
AGAATGTA	-0.133 ± 0.04
CCCGAACA	-0.104 ± 0.0019
GGTTGCAA	0.145 ± 0.0094
CCATATCC	-0.2 ± 0.031
AGGGCGAT	0.0278 ± 0.053
GCCTTCGC	0.296 ± 0.0037
CGTGCGAA	0.4443 ± 0.0016
ACCCAAAA	-0.0829 ± 0.014
CAAGGCAA	0.0698 ± 0.018
GGTACGTA	-0.194 ± 0.033
TATATACA	-0.0689 ± 0.021
ACCCGGCG	0.0822 ± 0.0058
AGCAGACT	-0.0259 ± 0.0065
CTATTTCC	-0.0557 ± 0.046

Sequence	PBM E-score of 8-mer
CAGACTGA	-0.25 ± 0.036
CACACCCC	0.419 ± 0.025
ACATACGT	-0.0435 ± 0.038
ATAGGTCA	-0.207 ± 0.043
AGGGGGTG	0.269 ± 0.055
CGCCTGAA	-0.141 ± 0.027
GAATTTAC	-0.0912 ± 0.033
ACAATGAC	0.0379 ± 0.0064
ACAGGCTG	-0.0369 ± 0.043
ACGGGAAA	-0.0252 ± 0.065
GACAAGGC	0.0902 ± 0.017
AATAACTG	0.0825 ± 0.042
GCTCGAGC	-0.222 ± 0.013
AAGGTAAA	0.0683 ± 0.019
ACCATTAT	-0.247 ± 0.079
CGCGTCGC	0.192 ± 0.028
TGACATAA	0.111 ± 0.022
AACAATCT	0.0664 ± 0.044
TATTAACA	0.174 ± 0.052
AGAAGTGG	0.141 ± 0.0081
CACGATGG	-0.0559 ± 0.009
AATGCGAG	0.076 ± 0.053
GCACCTAA	0.339 ± 0.04
AGTCGGTG	-0.0564 ± 0.0046
ACGCGAAT	0.108 ± 0.0028

Sequence	PBM E-score of 8-mer
GGACTAGA	-0.12 ± 0.044
ACATGTAT	0.0162 ± 0.03
CGCAAGCA	0.0501 ± 0.095
CGCCCTCA	0.164 ± 0.057
AGATGACC	-0.114 ± 0.059
ATGAAGGC	-0.0596 ± 0.051
CTTAACCA	-0.139 ± 0.0031
TAAACGAA	-0.2 ± 0.12
ACCGCAGG	-0.012 ± 0.0022
AACTTCTT	-0.0093 ± 0.033
CATGTGAC	0.233 ± 0.023
AACATAGA	-0.26 ± 0.026
GGACCCGA	0.149 ± 0.04
GTGACAAA	0.38303 ± 5.7e-05
TAAATACA	-0.0351 ± 0.039
TCGTGAAA	0.253 ± 0.054
AACTCTCG	-0.0772 ± 0.075
TGTGCTAA	0.26 ± 0.011
GGACTTTA	-0.144 ± 0.067
AACCTTAG	-0.144 ± 0.086
CCCCGCCA	0.0876 ± 0.024
AGTATGCG	-0.1685 ± 0.00056
CAGTTATG	0.0272 ± 0.003
AGGCGTCG	0.349 ± 0.018
GCACCCGA	0.0696 ± 0.039

Sequence	PBM E-score of 8-mer
AACGTGCT	0.139 ± 0.036
AAATAATA	-0.023 ± 0.067
AGACTTAT	0.00662 ± 0.019
ACCAACGG	0.156 ± 0.012
AGCGGTTG	0.0435 ± 0.043
CGGCAGAC	-0.231 ± 0.0041
AGCAGGGG	-0.0981 ± 0.058
ATGGTGCC	0.153 ± 0.028
CTGTGCTC	-0.171 ± 0.044
GAACTCAA	-0.253 ± 0.097
GAAAGGGA	-0.158 ± 0.0061
GCACTAAC	0.213 ± 0.0027
AGCGGCTG	-0.131 ± 0.013
AATTTTGT	-0.166 ± 0.052
AGCACGAC	-0.0218 ± 0.05
AATTCAGC	-0.016 ± 0.024
ATCCTGGC	-0.188 ± 0.028
CACAGTCC	0.0591 ± 0.024
AATCGGAC	-0.106 ± 0.072
CCACTGTA	-0.0467 ± 0.067
ACTGAGCG	0.075 ± 0.019
GGCGTGAA	0.473 ± 0.0057
CAGCGGCA	0.0649 ± 0.1
AAGTCCAC	-0.116 ± 0.022
GCGTATCA	-0.14 ± 0.015

Sequence	PBM E-score of 8-mer
ACCAGTGA	-0.0495 ± 0.041
GAATTGAA	-0.177 ± 0.099
CTAGCCTC	-0.0149 ± 0.0017
CGACTTGA	0.0579 ± 0.084
TGACAGCA	0.2699 ± 0.0022
CACACTAG	0.247 ± 0.0041
ACGACGTG	0.2421 ± 0.00038
GGCTACAA	-0.103 ± 0.017
ACGAATGA	0.00087 ± 0.061
GTTCAAGA	-0.275 ± 0.12
GCCTACCC	-0.0433 ± 0.057
ATCGGAAA	0.0519 ± 0.1
GCCCTACC	-0.231 ± 0.018
CCGCCGTC	-0.0628 ± 0.016
ATGGAGCA	-0.216 ± 0.049
AACTCCTC	-0.0179 ± 0.041
GCGGCATA	-0.122 ± 0.076
TACTTACA	0.0313 ± 0.082
TAATGAAA	-0.0329 ± 0.0047
CAGGCGAG	0.17 ± 0.0097
AGGACATC	0.0209 ± 0.091
ATGGTGGG	-0.148 ± 0.029
CGCGCAGA	0.15 ± 0.0021
ACGGGCAG	-0.111 ± 0.021
CCACAGTA	-0.201 ± 0.011

Sequence	PBM E-score of 8-mer
ATTTGTTA	0.125 ± 0.085
GAGATTAA	-0.0489 ± 0.075
AGAGGCTC	-0.16 ± 0.016
CATTAATG	-0.184 ± 0.053
GGGACTAC	-0.192 ± 0.044
AATATGCC	-0.199 ± 0.0042
CTTGGTAC	0.00058 ± 0.061
CTTTTCAC	0.327 ± 0.037
CTGATTAA	-0.198 ± 0.041
CGAGCGGA	-0.233 ± 0.013
CAGTAATA	-0.0141 ± 0.0066
CAATGCAC	0.0557 ± 0.0021
CATAGATG	0.0278 ± 0.017
GGAGAGCA	-0.0861 ± 0.087
GAGGGCGC	0.147 ± 0.036
GACGCAGA	-0.038 ± 0.072
GAGTTAAA	-0.0697 ± 0.042
GGAAGGAC	-0.281 ± 0.062
CCTGGGTC	-0.253 ± 0.044
AGTTGATG	-0.00884 ± 0.0088
AAGTACAG	0.0334 ± 0.059
ATCTGAAG	-0.218 ± 0.079
AATCGTTC	-0.189 ± 0.049
AAATTGCT	-0.0891 ± 0.024
CGCAGCAA	0.015 ± 0.039

Sequence	PBM E-score of 8-mer
ACCCACAC	0.355 ± 0.035
GGGCGCTA	0.314 ± 0.014
ATCCCAAG	-0.268 ± 0.033
CGTCCAAG	-0.0976 ± 0.0075
ATCTTATC	-0.105 ± 0.035
TGTCTAAA	-0.101 ± 0.12
AACTCGGG	-0.241 ± 0.094
AGATGTCG	0.172 ± 0.02
ACCCGCGA	0.361 ± 0.011
CATGGTCG	-0.0965 ± 0.042
GGCAACCC	-0.0617 ± 0.1
AGGCGGCA	0.141 ± 0.0094
CCTAAGAC	-0.232 ± 0.025
CAACACTA	0.264 ± 0.025
AACACATT	0.383 ± 0.024
AGTTGTCG	0.293 ± 0.033
GAAATGGA	-0.101 ± 0.0095
ACTATGCT	0.0215 ± 0.058
ACAAGGCG	0.203 ± 0.048
TCGCGCAA	0.265 ± 0.0082
TTAAATAA	-0.022 ± 0.084
CGTGGAGC	-0.149 ± 0.098
CAGGAATG	-0.099 ± 0.023
ATCCGTAA	-0.0265 ± 0.049
GAGCAGAA	-0.0216 ± 0.059

Sequence	PBM E-score of 8-mer
CGCGCCTA	0.356 ± 0.037
GGATAGGA	-0.248 ± 0.01
ACTTGGAT	-0.0509 ± 0.046
TGAGTAAA	0.164 ± 0.064
AAAAAAAT	0.0431 ± 0.054
TGGTAACA	0.2916 ± 0.0015
GAAAACGA	-0.168 ± 0.017
CTCAGAGC	0.123 ± 0.018
AAATTACC	0.00666 ± 0.022
AGAGTAGC	-0.0268 ± 0.064
GAGAAAAC	0.0173 ± 0.018
AATATAGT	0.016 ± 0.066
ATATGAAA	-0.17 ± 0.12
ATAATTGG	-0.0411 ± 0.041
TATCAGAA	-0.0686 ± 0.062
CTGCAGTC	-0.0913 ± 0.086
TCCGACCA	-0.244 ± 0.015
ATAACCGG	-0.036 ± 0.022
AGACTATG	-0.23 ± 0.061
